B1: LINE1-full (parent)
chain: UACGUAGGUGGUUUUCCCCUGAUAGUGCUAAGGGGGCCUGGAAGUUUGGACUGGGCAGAGCUCAACACAGCGUGGCAAAGUGGCUGUGGCUAGACUGCCUCUCUGGAUUCCUCGUCACUCAGCAGGGCAUCUCUGAGAGAAAUGCC

Read counts are not given, so values of variants with three or more changes are uncertain.

The variants in this series derive from B1. Nature of the series: self-cleavage, relative activity (ratio to wild type); higher = more cleavage; in vitro, sequencing; the parent is a self-cleaving ribozyme.
Regarding UACGUAUGUGGUUUUCCCCCGAUAGUGCUAAGGGGGCCUGGAAGUUUGGACUGGGCAGAGCUCAACACAGCGCGGCAAAGUGGCUGUGGCUAGACUGCCUCUCUGGAUUCCUCGUCGCUCAGCAGGGCAUCUCUGAGAGAAAUGCC [G7U U20C U73C A117G], the self-cleavage was found to be 0.84.

In the case of UACGUAGGUGGUUUUCCCCUGAUAGUGCUAACGGGGCCUGGAAGUUUGGACCGGGCAGAGCUCAACACAGCGUGGCAAAGUGGCUGUGGCUAGACCGCCUCUCUGGAUUCCUCGUCACUCAGCAGGGCAUCUCUGGAAGAAAUGCC [G32C U52C U96C A136G G137A], the self-cleavage came out at 0. As for UACGUAGGUGGUUUUCCCCUGAUAGUGCUUAGGGGGCCUGGAAGUUUGGACUGGGCAGAGCUCAACACAGCGUGGCAAAGUGGCUGAGGCUAGACUGCCUCUCUGGAUUCCUCGUCACUCAGCAGGGCACCUCUGAGAGAAAUGCC [A30U U87A U130C], the figure is 0.1; as for UACGUAGGGGGGUUUCCCCUGAUAGUGCUAAGGGGGCCUGGAAGUUUGGACUGGGCAGAGCUCAACACAGCGUGGCAGAUUGGCUGUGGCUAGACUGCCUCUCUGGAUUCCUCGUCACUCAGCAGGGCAUCUCUGAGAGAAAUGCC [U9G U12G A78G G80U], 0.67. With UACGUAAGUGGUUUUCCCCUGAUAGUGCUAAGGGGGCCUGGAAGUUUGGACUGGGCAGAGCUCAACACGGCGUGGCAAAGUGGCUGUGGCUAGACUGCCUCUCUGGAUUCCUCAUCACUCAGCAGGGCAUCUCUGAGAGAAACGCC [G7A A69G G114A U143C], the self-cleavage worked out at 0.44. Regarding UACGUAGGUGGUUUUCCCCUGCUAGUGCUAAGGGGGCCUGGAAGUUUGGACUGGGCAGAGCUCAACACAGCGUGGCAAAGCGGCUGUGGCUAGACUGCCUCUAUGGAUUCCUCGUCACUCAGCAGGGCAUCUCUGAGAGAAAUGCC [A22C U81C C103A], the self-cleavage came to 1.53. As for UGCGUAGGUGGUUUUCCCCUGGUAGUGCUAAGGGGGCCUGGAAGUUUGGACUGGGCUGAGCUCAACACAGCGUGGCAAAGUGGCUGUGGCUAGACUGCCUCUCUGGAUUCCUCGUCACUCAGCAGGGCAUCUCUGAGAGAAAUGCC [A2G A22G A57U], the figure is 0.22; as for UACGAAGGUGGUUUUCCCCUGAUAGUGCUAAGGGGGCCUGGAAGUUUGGGCUGGGCAGAGCUCAACACAGCGUGGCAAAGUGGCUGUGGCUAGACUGCCUCUCUGGAUUCCUCGUCACUCAGCAGGGCAUCUCAGAGAGAAAUGCC [U5A A50G U134A], 0.36. As for UACGUAGGUGGUUUCCCCCUGAUAGUACUAAGGGGGCCUGGAAGUUUGGACUGGGCAGAGCUCAACACAGCGUGGCAAAGUGGCUGUGGCUAGACUGCCUCUCUGGAUUCCUCGUCACUCAGCAGAGCAACUCUGGGAGAAAUGCC [U15C G27A G126A U130A A136G], the figure is 1.32; as for UACGUAGGUGGUUCUCCCCUGAUAGUGCUAAGGGGGCCUGGAAGUUUGGACUGGGCAGAGCUCAGCACAGCGUGGCAAAGUGGCUGUGGCUAGACUGCCUCUCUGGAUUCCUCGUCACUCAGCAGGGCAUCUCUGAGAGAAAUGCU [U14C A65G C146U], 0.03; as for CGCGUAGGUGGUUUACCCCUGAUAGUGCUAAGGGGGCCUGGAAGUUUGGACUGGGCAGAGCUCAACACAGCAUGGCAAAGUGGCUGUGGUUAGACUGCCUCUCUGGAUUCCUCGUCACUCAGCAGGGCAUCUCUGAGAGAAAUGCC [U1C A2G U15A G72A C90U], 0.08. As for UACGUAGGUGGUUUUCCCCUGAUAGUGCUAAGGGGGGCUGGAAGUUUGGACUGGGCAGAGCUCAGCACAGCGUGGCAAAGUGGCUGUGGCUAGACUGCCUCUCUGGAUUCCUCGUCACUCAGCAGGGCAUCUCUGAGAGGAGUGCC [C37G A65G A140G A142G], the figure is 0; as for CACGUAGGUGAUUUUCCCCUGAUAGUGCUAAGGGGGCCUGGAAGUUUGGACUGGGCAGAGCUCAACACAGCGUGGCUAAGUGGCUGUGGCUAGACUGCCUCUCUGGAUUCCUCGUCACUCAGCAGGGCAUCUCUGAGAGAAAUGCC [U1C G11A A77U], 1.1. Regarding UACGUAGGUUGUUUCCCCCUGGUAGUGCUAAGGGGGCCUGGAAGUUUGGACUGGGCAGAGCUCAACCCAGCGUGGCAAAGUGACUGUGGCUAGACUGCCUCUCUGGAUUCCUCGUCACUCAGCAGGGCAUCUCUGAGAGAAAUGCC [G10U U15C A22G A67C G83A], the self-cleavage was found to be 0.14. For the variant UACGUAGGUGGUUUUCCCCUGAUAGUGCUAAGGGGGCAUGGAAGGUUGGACUGGGCAGAGCUCAACACAGCGUGGCAAAGUGGCUGUGGCUAGACUGCCUCUCUGGAUUCCUCGUCACUCAGCAGGGCAUCUCUGAGAGAAGUGCC [C38A U45G A142G], the self-cleavage was 0.96. As for UACGUAGGUGGUUUUCCCCUGAUAGUGCUAAGGGGGCCUGGAAGUUCGGACUGGGCAGAGCUCAACACAGCGUGGCAAAGUGGCUGUGGCUAGACUGCCUCUCUGGAUUCCUCGUCACUCAGCGGGGCAUCCCUGAGAGAAAUGCC [U47C A124G U132C], the figure is 0.42; as for UACGUAGGGGGCUUUCCCCUGAUAGUGCUAAGGGGGCCUGGAAGUUUGGACUGGGCAGAGCUCAACACAGCGUGGCAAAGUGGCUGUGGCUAGACUGCCUCCCUGGAUUCCUCGUCACUCAGCAGGGCAUCUCUGAGAGAAAUACU [U9G U12C U102C G144A C146U], 0.71. As for UACGUGGGUGGUUUUCCCCUAAUAGUGCUAAGGGGGCCUGGAAGAUUGGACCGGGCAGAGCUCAACACAGCGUGGCAAAGUGGCUGUGGCUAGACUGCCUCUCUGGAUUCCUCGUCACUCAGCAGGGCAUCUCUGAGAGAAAUGCC [A6G G21A U45A U52C], the figure is 0.86; as for UACUUAGGUGGUUUUCCCCUGAUAGUGCCUAGGGGGCCUGGAAGUUUGGACUGGGCAGAGCUCAACACAGCGUGGCAAAGUGGCUGUGGCUAGACUGCCUCUCUGGAUUCCUCGUCACUCAGCAGGGCAUCUCUGAGAAAAAUGCC [G4U U29C A30U G139A], 1.06; as for UAUGUAGGUGGUCUUCCCCUGAUAGUGCUAAGGGGGCCUGGAAGUUUGGACUGGGCAGAGCUCAACACAGCGUGGCAAAGAGGCUGCGGCUAGACUGCCUCUCUGGAUUCCUCGUCACUCAGCAGGGCAUCUCUGAGAGAAAUGCC [C3U U13C U81A U87C], 0.25. On to UACGUAGGUGGGUUUCCCCUGAUAGUGCUAAGGGGGUCUGGAAGUUUGGACUGGGCAGAGCUCAACACAGCGUGGCAGAGUGGCUGUGGCUAGACUGCCUCUCUGGAUUCCUCGUCACUCAGCAGGGCAUCUCUGAGAGAAAUGCC [U12G C37U A78G], for which the self-cleavage was 1.17.

For the variant UACGUAGGUGGUUCUCCCCUGUUAGUGCUAAGGGGGCCUGGAAGUUUGGACUGGGCAGAGCUCAACACGGCGUGGCAAAGUGGCUGUGGCUAGACUGCCUCUCUGGAUUCCUCGUCACUCAGCAGGGCAUCCCUGAGAGAAGUGCC [U14C A22U A69G U132C A142G], the self-cleavage was 0.71. As for UACGUAGGUGGUUUUCCCCUGAUAGUGCUAAGGGGGCCUGGAAGUUUGGACUGGGCAGAGCUCAACACAGCGCGGCAAAGUGGCUGUGGCUAGACUGCCUCUCUGGAUUCCUCGCCACUCAGCAGGGCAUCUCUGAGUGAAAUGCC [U73C U115C A138U], the figure is 2.23; as for UACGUAGGUGGUAUUCCCCUGAUAGUGCUAAGGGGGGCUGGAAGUUUGGACUGGGCAGAGCUCUACACAGCGUGGCAAAGUGGCUGUGGCUAGACUGCCUCUCCGGAUUCCUCGUCACUCAGCUGGGCAUCUCUGAGAAAAAUGCC [U13A C37G A64U U104C A124U G139A], 0.22; as for UACGUAGGUGGUUCUCCCCUGAUAGUGCUAAGGGGGCCUGUAAGUUUGGACUGGGCAGAGCUCAACACAGCGUGGCAAAGUAGCUGUGGCUAGACUGCCUCUCUGGAUUCCUCGUCACUCAGCAGGGCAUCUCUGAGAGAAAUGCC [U14C G41U G82A], 1.97. The value for UACGUAGGUGGUUCUCCCCUGAUAGUGCUAAGGGGGCCCGGAAGUUUGGACUGGGCAGAGCUCGACACAGCGUGGCAGAGUGGCUGUGGCUAGACUGCCUCUCUGGAUUCCUCGUCACUCAGCAGGGCAUCUCUGAGAGAAAUGCC [U14C U39C A64G A78G] was 0.

The values above are taken from the RNAGym collection of RNA variant scans (doi:10.7554/elife.90254).
